The campaign covered roughly 410,000 compounds. About 1,200 (0.29%) were called active. The inconclusive results got no clear call from the source; some entries with a clear call stand among them for comparison. The call rests on the fitted dose curve; in most records, active means well fitted activation curve with a large enough effect; inconclusive means small, poorly fitted or top-dose-only effect; inactive means flat fitted curve, though single readings scatter. Where the call is inconclusive, the potency comes from a doubtful curve fit.
Test: qHTS of Nrf2 Activators; further: nearly all actives have a fitted effect of over 65% in size
Details: AREc32 ARE-luciferase reporter (MCF7-derived line), luminescence, 24 h; series mostly up to 46.1 µM
In short: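 Quantitative high-throughput format: AREc32 reporter cells, 1000 per well, received compound by pin transfer and were incubated 24 hr at 37 deg C, 5% CO2, before Steady-Glo luminescence detection.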
Potency means the concentration at half of the fitted maximal effect; tags describe the fitted curve by direction and shape.

Potency, active:
O=C(/C=C\c1ccccc1OC(=O)c1ccccc1F)c1cc2ccccc2o1 11.2 µM
Cc1cccnc1NC(=S)NC(=O)c1cccs1 10 µM
CN(C(=O)c1ccco1)c1nnc(-c2ccc(F)cc2)s1 7.08 µM
O=S(=O)(/C=C/c1ccccc1)Oc1ccccc1 12.6 µM
Cc1ccc(S(=O)(=O)Nc2nc3ccccc3nc2NCc2ccco2)cc1 22.4 µM
NS(=O)(=O)c1cccc(NC(=O)c2cc(=O)c3ccccc3o2)c1 12.6 µM

Potency, inconclusive:
O=C(NNC(=O)C1C2C=CC(C2)C1C(=O)O)c1ccccc1O (stereo unspecified) 31.6 µM [activator, single point]
COc1ccc2c(c1)CC/C(=C/c1ccco1)C2=O 22.4 µM [activator, single point]
CCCNc1ccc(-c2nc(-c3ccco3)no2)cc1[N+](=O)[O-] 1 µM [activator, full curve, poor fit]
N/C(=N\OC(=O)c1cccnc1)c1ccccc1Cl 15.8 µM [activator, single point]
O=C(N=Nc1c(O)[nH]c2ccc([N+](=O)[O-])cc12)c1ccccc1Cl 22.4 µM [activator, partial curve, poor fit]
N#C/C(=C\C=C\c1ccccc1[N+](=O)[O-])C(=O)NC1CCCCC1 3.16 µM [activator, full curve, poor fit]
O=C1/C(=C\c2ccsc2)NC(=S)N1c1ccccc1 11.2 µM [activator, partial curve, poor fit]
COc1cccc(CNC(=O)COC(=O)c2nc(Cl)c(Cl)c(Cl)c2Cl)c1 22.4 µM [activator, single point]
COc1ccc(OCC(=O)Nc2ccccc2O)cc1 15.8 µM [activator, partial curve, poor fit]
CC(/C=N\Nc1nnc2c(n1)[nH]c1c(C)cccc12)=C\c1ccco1 11.2 µM [activator, partial curve, poor fit]
COc1ccc(N=Nc2[nH]c3ccc(C)cc3c2O)cc1 14.1 µM [activator, partial curve, poor fit]
c1ccc(-c2cnc(-c3ccccn3)nn2)cc1 2.51 µM [activator, full curve, poor fit]
Cc1c(C(=O)N2CCOCC2)sc(NC(=O)CCl)c1C#N 15.8 µM [activator, single point]
Cc1nc2nc(-c3cccs3)cn2nc1C 14.1 µM [activator, single point]
Cc1ccc([N+](=O)[O-])cc1NC(=O)c1ccc(-c2ccccc2)cc1 8.91 µM [activator, partial curve]
Clc1c(CSc2nc3ccccc3o2)nc2ccccn12 3.16 µM [activator, full curve]
CC1CCCN(c2sc(S(C)(=O)=O)nc2S(=O)(=O)c2ccc(Cl)cc2)C1 (stereo unspecified) 17.8 µM [activator, single point]
O=[N+]([O-])c1cc(C2Nc3cccc4cccc(c34)N2)ccc1Cl 17.8 µM [activator, single point]
O=C(/C=C/c1ccc(Cl)cc1)NC(=S)Nc1ccccc1C(=O)O 17.8 µM [activator, single point]
O=[N+]([O-])c1cccc(-c2cn3ccccc3n2)c1 11.2 µM [activator, partial curve, poor fit]
N#C/C(=C\c1cccs1)C(=O)Nc1nccs1 15.8 µM [activator, single point]
Cc1ccc(-c2cc(-c3ccc(C)o3)nc(N)c2C#N)cc1 31.6 µM [activator, single point]
C=C1C(=O)C2=CC1CCC(=O)C1(C)CCC(OC(C)=O)C(C)(C)C1CC2O (stereo unspecified) 5.62 µM [activator, single point]
Cc1ccc(CNC(=O)CSc2c3c(nc4ccc(Cl)cc24)CCCC3)o1 22.4 µM [activator, single point]
O=C(CSc1ncnc2c1oc1ccccc12)Nc1cccc(Cl)c1 12.6 µM [activator, single point]
O=C(CNC(=O)C1COc2ccccc2O1)Nc1ccc(F)c(F)c1 (stereo unspecified) 10 µM [activator, partial curve, poor fit]
CN(C(=O)c1ccco1)c1nc(-c2ccccc2)cs1 11.2 µM [activator, partial curve, poor fit]
Nc1c(C(=O)Nc2ccc(F)cc2)sc2nc(-c3ccco3)ccc12 2 µM [activator, partial curve, poor fit]
C=CCn1c(SCC(N)=O)nc2scc(-c3ccc(C)o3)c2c1=O 11.2 µM [activator, partial curve, poor fit]
COc1ccc(-c2cc(C#N)nc(Cl)n2)cc1 31.6 µM [activator, single point]
O=S(=O)(c1ccc(Cl)cc1)c1cnc2ccccc2n1 20 µM [activator, single point]
O=C(Nc1cccc(F)c1)/C(=C/c1ccco1)NC(=O)c1ccco1 11.2 µM [activator, partial curve]
Sc1ccccc1N=Cc1cccs1 11.2 µM [activator, partial curve, poor fit]
CCc1ccc2nc(N(CCN(C)C)C(=O)/C=C/c3cccs3)sc2c1 11.2 µM [activator, partial curve]
NC(=O)C1CCN(C(=O)c2ccccc2SCC(=O)NCC2CCCCC2)CC1 22.4 µM [activator, single point]
CCOc1ccc(-c2[nH]nc3c2C(c2cccnc2)C(C#N)=C(N)O3)cc1 (stereo unspecified) 25.1 µM [activator, single point]
O=C(O)CCn1cc(/C=C/C(=O)c2ccc(Cl)cc2)c(-c2ccc(Br)cc2)n1 22.4 µM [activator, single point]
COc1ccccc1C(c1c(N)n(C)c(=O)n(C)c1=O)C(C)[N+](=O)[O-] (stereo unspecified) 31.6 µM [activator, single point]
C(=N\Nc1nc(-c2ccccc2)cs1)/c1cccs1 12.6 µM [activator, single point]
COc1ccc(/C=C/C(=O)c2ccc3c4c(cccc24)CC3)cc1 31.6 µM [activator, single point]
CCOC(=O)CCC(=O)c1c(C)oc2ccc(OC)cc12 14.1 µM [activator, single point]
O=[N+]([O-])c1ccc2nc(-c3ccccc3)[nH]c2c1 11.2 µM [activator, partial curve, poor fit]
COc1ccc(/C=C/C(=O)c2ccc3c(c2)OCO3)c(OC)c1 12.6 µM [activator, single point]
COc1ccc(Cl)cc1NC(=O)c1c(NCc2sccc2C)sc2c1CCCC2 15.8 µM [activator, single point]
O=C(NCc1ccco1)C(Cc1ccccc1)N1C(=O)c2ccccc2C1=O (stereo unspecified) 20 µM [activator, single point]
COc1ccc(NC(=O)c2cc(-c3ccco3)nc3ccccc23)cn1 10 µM [activator, partial curve, poor fit]
C#CCN1C(=O)C(O)(CC(=O)/C=C/C=C/c2ccccc2)c2ccccc21 (stereo unspecified) 28.2 µM [activator, single point]

Potency, inactive:
COCc1cc(C)nc(OCC(=O)N/N=C/c2cccc(OC)c2)c1C#N
O=C(NCc1cccc(F)c1)c1cccc2c1C(=O)c1ccc(N3CCOCC3)cc1S2(=O)=O
CCCN1CCCc2cc(CN)ccc21
Cn1c(=O)c2sccc2n2c(CCC(=O)Nc3ccc(F)cc3)nnc12
N/C(=N\OC(=O)c1ccc2ccccc2c1)c1ccccc1Cl
Cc1cc(C(=O)COC(=O)Cc2ccc(Br)cc2)c(C)n1C
CCCC(c1nnnn1CCOC)N1CCN(Cc2ccccc2)CC1 (stereo unspecified)
COc1ccc(-c2nc3ccc(C)cn3c2NCc2ccc3c(c2)OCO3)cc1
O=C(/C=C/c1ccccc1Cl)OCC(=O)N1CCc2ccccc21
Cc1ccsc1C(=O)Nc1ccc(C(=O)O)cc1
COCCNC(=O)CN1N=C(c2ccc(OC)cc2)CCC1=O
CCOC(=O)c1cnn(CCOC(=O)C2CC2)c1NC(=O)C1CC1
CCN(CC)C(=O)COc1coc(CN2CCN(c3ccc(F)cc3)CC2)cc1=O
COC(=O)c1[nH]c2cc(OC)ccc2c1NC(=O)CCN1CCN(c2cccc(C)c2C)CC1
O=C(Nc1cc(Cl)cc(Cl)c1)C1CC(=O)N(C2CCCC2)C1 (stereo unspecified)
COc1ccccc1Cc1nc2ccccc2nc1SCC(=O)Nc1cccc(Cl)c1C
CCOc1ccccc1CNCCN1CCOCC1
COCCCNC(=O)c1cc(-c2cccnc2)nc2ccc(S(=O)(=O)N3CCC(C)CC3)cc12

Reference: PubChem BioAssay AID624171 (National Center for Advancing Translational Sciences (NCATS), 2012)
